From ChEMBL document CHEMBL4888484, “Replenishing the malaria drug discovery pipeline: Screening and hit evaluation of the MMV Hit Generation Library 1 (HGL1) against asexual blood stage Plasmodium falciparum ,using a nano luciferase reporter read-out” (2022) come the findings set out here.

SMILES strings stand for the structures. Among all 150,000 compounds or so, about 540 (0.36%) showed an effect of 50% or more. The list shows a part of the results.

As usually defined, the % Inhibition is the drop in the measured response relative to a control, in per cent.

This experiment has as its system Plasmodium falciparum. Nature of the experiment: Primary screen in NF54 nanoGlo assay, in single point, at 2uM, 72h; a lower Z score goes with more inhibition. The format is functional, Erythrocyte. Conditions: timepoint 72 hour.
`Cc1cc(C)n(C)c(=O)c1C(=O)N1CCN(C(=O)[C@@H]2CCCO2)CC1`: the “% Inhibition” value was determined as 5% and the Z score is given as -0.65.
The matching figures for `O=C(NCCN1CCC(c2cccs2)CC1)NC1CCOCC1`: -5% and 0.6.
`NC(=O)CN1CCCN(C(=O)Nc2cccnc2-n2cccn2)CC1`: the “% Inhibition” value is 12% and the Z score was -1.85.
Turning to `CO[C@H]1CN(C2CCN(C(=O)CC3CCCCC3)CC2)C12CCOCC2`, the “% Inhibition” value is reported as -8% and the Z score is on record as 1.3.
The corresponding values for `O=C(Nc1ccc(F)cc1N1CCOCC1)N1CCCC(F)(F)CC1` are 0% and 0.02.
The matching figures for `Cc1nc(C)c(-c2cccc(-c3ccn(CCCN(C)C)n3)c2)s1`: -11% and 1.23.
For the molecule `COc1cccc(-n2c(=O)c3c(C)c(C(=O)N(C)C)sc3n(CC(=O)NC[C@H]3CCCO3)c2=O)c1`, the “% Inhibition” value was determined as 9% and the Z score is on record as -1.06.
On to `CC(C)NC(=O)[C@@H]1Cc2[nH]cnc2CN1Cc1ccc(Cl)cc1`, for which the “% Inhibition” value stood at 12% and the Z score was -1.5.
The matching figures for `Cc1ccc(CCN2C(=O)[C@H]3CCCCN3C2=O)nc1`: -24% and 4.56.
As to `O=C(Nc1ccc(F)cc1)Nc1nnc(C2CCCC2)s1`, the “% Inhibition” value turned out to be 3% and the Z score is listed as -0.36.
The matching figures for `CC[C@H](NS(=O)(=O)c1ccc(C)c(N(C)C)c1)c1noc(C)n1`: -1% and 0.19.
The corresponding values for `COc1ccc(CN(C)c2ncccc2-c2nc(-c3ccc(C)cc3)no2)cc1` are -6% and 0.99.
The matching figures for `CC(=O)Oc1c(-c2ccc(NC(=O)c3ccccc3Cl)cc2)c(-c2cccc(C)c2)nn1-c1ccc(F)cc1`: -5% and 0.78.
As to `CC(C)c1noc([C@H](C)n2ccnc2-c2cnc(N3CCCC3)nc2)n1`, the “% Inhibition” value is -9% and the Z score was 1.33.
In the case of `CC[C@H]1C(=O)NCCN1c1nc(C)cc(N)n1`, the “% Inhibition” value is listed as -4% and the Z score came to 0.76.
The corresponding values for `CC(C)Cc1nc(C(=O)N2CCC[C@@]23CCOC3=O)cs1` are -14% and 2.8.
Regarding `CC(C)Cn1cnnc1[C@@H]1CCCN1CCC(=O)N1CCOCC1`, the “% Inhibition” value was -6% and the Z score worked out at 1.2.
The matching figures for `CN(CCC(=O)O)Cc1ccccc1C1CC1`: -2% and 0.39.
The matching figures for `CNC(=O)c1noc(CNC(=O)Cc2c(F)ccc(F)c2F)n1`: 8% and -1.17.
`Cc1cc(NC(=O)CN(C)[C@@H](C)c2sc(C)nc2C)n(C)n1`: the “% Inhibition” value came to 8% and the Z score is listed as -1.39.
Turning to `Cc1ccc(NS(=O)(=O)c2cc(-c3nnc(C(=O)N4CCCC4)o3)sc2C)cc1C`, the “% Inhibition” value is given as -10% and the Z score is 1.45.
The matching figures for `CCON1CCC(CC(=O)N(C)CCN(C)C2CC2)CC1`: -11% and 2.02.
As to `COCC1(CNC(=O)C[C@H](C)n2ccnc2C)CCC1`, the “% Inhibition” value was -4% and the Z score is recorded as 0.67.
Regarding `O=c1[nH][nH]c2nc(O)cc(C(F)(F)F)c12`, the “% Inhibition” value is given as -5% and the Z score worked out at 0.55.
The matching figures for `O=C1NCCOCCN(S(=O)(=O)c2ccccc2)[C@@H]2CCCC[C@H]12`: 5% and -0.95.
The corresponding values for `Cc1nnnn1CCn1nc2ccccn2c1=O` are -9% and 1.14.
The matching figures for `c1cc(-c2csc(C3CC3)n2)cc(-c2noc(-c3cnccn3)n2)c1`: -12% and 1.41.
Consider `Cc1ccc(-c2noc(C3CC3)n2)cc1-n1cc(C(=O)NCc2ccccc2Cl)c(C)n1`, for which the “% Inhibition” value is given as -2% and the Z score stood at 0.26.
The matching figures for `CC[C@H](NCc1c(C)noc1C)c1c(C)noc1C`: 15% and -1.73.
As for `CCCC[C@H]1CN(c2ccccc2OC)C(=O)CN1C(=O)c1cc(C)n[nH]1`, the “% Inhibition” value is given as -1% and the Z score is given as 0.18.
The matching figures for `Cc1ncsc1C(=O)N1CC[C@H](Oc2ncccn2)C1`: -14% and 2.67.
On to `C[C@@H](C1CC1)N(C(=O)COc1c(C#N)oc2ccccc12)C1CC1`, for which the “% Inhibition” value is recorded as -8% and the Z score is given as 1.53.
The matching figures for `O=C(NCc1cccc(Br)c1)c1ccc(Cl)c(-n2cnc3cccnc32)c1`: 34% and -0.68.
Consider `COC1(CO)CCN(Cc2cnn(CCF)c2)CC1`, for which the “% Inhibition” value is -10% and the Z score worked out at 1.7.
Consider `NC(=NCCOc1ccc(Br)cc1)N1CCOCC1`, for which the “% Inhibition” value is 36% and the Z score is reported as -4.82.
The matching figures for `c1cncc(-c2nc3c(c(N4CCc5cncnc5C4)n2)CCC3)c1`: -3% and 0.42.
The matching figures for `CCC[C@H](C)NC(=O)c1ccccc1F`: -3% and 0.32.
The corresponding values for `Cc1ccccc1[C@H]1CN(C(=O)C2CCOCC2)C[C@@H]1C(=O)O` are -3% and 0.39.
Take `O=C1CC(C2CCCCN2C(=O)N2CCOCC2)CN1` (centres undefined): the “% Inhibition” value is reported as 3% and the Z score was -0.62.
The corresponding values for `O=C(NC1CC1)[C@H]1CCCN(C(=O)c2cnc3ccccc3n2)C1` are -34% and 3.95.
`O=C(NC1(Cc2ccc(Cl)cc2)CC1)N1C[C@H]2CC[C@@H](C1)NC2`: the “% Inhibition” value is 8% and the Z score is -1.11.
The matching figures for `COc1cccc(NC(=O)C2[C@@H]3C=C[C@]4(O3)C(C(=O)NC3CCCCC3C)N(Cc3ccc(F)cc3)C(=O)[C@H]24)c1` (some centres undefined): 1% and -0.09.
